The supplement of paper PMC3334620
In all, about 33,000 sequences were measured (“E-score (-0.5 to 0.5)”: median about -0.012, highest 2% from about 0.29 on). This is one part of the list.

target: T1, Ybr033w (UniProt P38073); experiment: PBM E-score (8-mer binding enrichment) (E-score (-0.5 to 0.5)); higher = stronger / more preferred TF binding; most listed sequences are background and not binding sites; conditions: protein concentration: 200 nM; construct: GST-full length
T1 sequence: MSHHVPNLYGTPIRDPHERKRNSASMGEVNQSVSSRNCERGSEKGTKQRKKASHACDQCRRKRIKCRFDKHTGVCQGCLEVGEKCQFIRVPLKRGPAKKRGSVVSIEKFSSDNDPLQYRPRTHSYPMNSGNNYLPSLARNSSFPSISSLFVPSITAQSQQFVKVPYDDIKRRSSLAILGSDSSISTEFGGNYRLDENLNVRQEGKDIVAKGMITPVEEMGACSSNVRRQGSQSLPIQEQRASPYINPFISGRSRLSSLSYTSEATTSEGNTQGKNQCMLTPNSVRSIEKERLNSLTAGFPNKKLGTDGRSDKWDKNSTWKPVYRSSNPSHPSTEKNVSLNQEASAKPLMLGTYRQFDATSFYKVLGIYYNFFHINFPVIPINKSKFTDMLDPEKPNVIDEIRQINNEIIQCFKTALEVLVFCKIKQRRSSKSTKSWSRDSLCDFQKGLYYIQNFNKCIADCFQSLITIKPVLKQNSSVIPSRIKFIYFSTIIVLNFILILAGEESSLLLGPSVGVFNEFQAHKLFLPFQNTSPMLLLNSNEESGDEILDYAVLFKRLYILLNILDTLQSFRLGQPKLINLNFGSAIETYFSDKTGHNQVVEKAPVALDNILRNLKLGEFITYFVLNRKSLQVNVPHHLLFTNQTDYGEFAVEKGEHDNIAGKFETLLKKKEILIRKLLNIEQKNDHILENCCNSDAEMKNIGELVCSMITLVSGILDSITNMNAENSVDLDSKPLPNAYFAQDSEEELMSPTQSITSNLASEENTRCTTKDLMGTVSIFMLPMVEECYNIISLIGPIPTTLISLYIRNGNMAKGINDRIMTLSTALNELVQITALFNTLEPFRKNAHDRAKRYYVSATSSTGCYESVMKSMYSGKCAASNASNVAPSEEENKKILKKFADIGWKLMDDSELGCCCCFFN
In short: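 Yeast transcription factors carrying a GST tag, as full-length proteins or DNA-binding domains, were produced by PURExpress in vitro transcription/translation. About 100-200 nM protein was applied to universal all-10-mer Agilent arrays, double-stranded by primer extension on fresh or once-stripped slides. Bound protein was detected with fluorescent anti-GST, and scans were normalised with masliner. The Universal PBM Analysis Suite gave each ungapped eight-base word, pooled with its reverse complement, an E-score, a modified Wilcoxon-Mann-Whitney statistic.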

Sequence	PBM E-score
AAACCACG	-0.0411
ACAGAGAC	0.0142
AGGACTGA	-0.167
AGTCATTA	0.074
CGCTAAGC	-0.0229
ACACTCGC	0.0904
GTAGGTCA	-0.233
CGGTGGTA	-0.114
GAGGCAGC	-0.208
GCCAATCA	-0.0448
GACATCCA	-0.0152
GAGTTGGA	0.18
ACCCAGCT	-0.143
ACGCCGGG	-0.3
AGATCATG	0.0396
AGCCAGAG	-0.196
AGGTCACC	-0.2
GACGTAGA	-0.296
CAATGTAG	0.043
AATAATAC	0.245
AAGTGCAC	0.16
CCTGTCTC	-0.156

Sequence	PBM E-score
GCGACTTA	-0.119
ACACGCTA	-0.00964
CGATAAAG	0.137
CTCCGTAC	-0.0575
AGTCATGA	0.0548
GTGAGTAA	0.0827
ACCGGGGG	-0.333
GTCCTAAA	-0.0119
ACGTCGCC	-0.246
GTATAATA	0.207
ATTGATTA	0.286
ATTAAATC	0.213
GTGTACAC	0.0902
TACAGGCA	-0.0896
AGGGCATA	0.121
CGTGTTAC	-0.114
CTATAAAC	0.219
CTACGCCC	-0.129
AACGGGAT	-0.00532
TAGTTCGA	0.0348
ACCCTTTG	-0.129
CCACCAGG	-0.225

Sequence	PBM E-score
AGTAGGGC	0.0017
CGTTTTAC	-0.0132
GCGCGAAC	-0.0266
CAAAGTCG	-0.0986
AGTGGTAG	0.0179
ATTGTGCC	-0.0949
ATGGTAGG	-0.14
TCCAACGA	-0.0709
ACCGAAAC	0.0158
CTAGATTA	0.184
CAGTACGA	0.0942
CTTAGGGC	-0.135
CACCTACG	-0.206
AGCTGCAT	-0.0402
CGCGGGTA	-0.00903
AACGACTG	-0.113
TTCCAAAA	0.168
ATACTAGA	0.233
AGTAGGAT	0.0548
AAATTTCC	0.258
ATGAGTTA	0.0961
CAGTGGCA	-0.155

Sequence	PBM E-score
CAGAATTA	-0.00887
AGGGATGA	-0.0393
GAGGAAGA	0.124
CAGCAAGG	-0.0777
ACAAATGT	0.0955
GTTCCATA	0.0434
CCGCGCTA	0.0648
CTAGATAA	0.196
AATTGCAT	0.179
ATCCTCTG	-0.0786
ATGGCCCC	-0.322
GCGATACA	0.0586
CGAAGTAA	0.168
ACATCTGA	-0.0959
ATATCAAT	0.245
ATACGGCA	0.0151
ACGTGTAT	0.105
AACACTAG	0.0881
GGACAACC	-0.136
CGAGGCCC	-0.19
CCCTGAGA	-0.277
CCAACGTA	0.0497

Sequence	PBM E-score
ATCCATGC	0.0934
GGTTTAGA	0.0155
AAGATCCG	-0.0767
ACTGTGCC	-0.0903
CTAACGAC	-0.0273
TAGTATAA	0.181
GCGTCCCA	-0.312
AAAGCCCT	-0.0951
CGTAAGAC	-0.122
ATCTGGGG	-0.162
TACGCAGA	-0.0151
TGAAACAA	0.171
AACCTCCG	-0.113
GAGCGGAC	-0.325
TATATCGA	0.215
ATTCACTA	0.175
CCAGGACC	-0.243
GTGTACCA	0.108
GATGTGGC	-0.209
CTCGCGTA	0.012
CATTGTCA	0.0329
